Consider four sequences from the supplement of paper PMC12230231.

± gives the standard deviation of the averaged measurements. Restriction of a single-cycle SIVsab GFP reporter by TRIM5α v1-loop variants in CRFK cells. Human variants: read share among cells still uninfected after two challenges over input, higher = gained restriction. Rhesus variants: share among infected cells over input, higher = lost restriction. Reporter dose not given per row. No active / inactive call per row; the paper calls a change when both replicates lie above its controls (mean + 2 SD of stop or wild-type variants, or the top frameshift score). Residues outside the varied loop are taken from Swiss-Prot. The paper reads the human single-substitution scores as noise; they and the rhesus combinations repeat poorly (rank correlation 0.3 to 0.4), indel scores repeat only for the top variants, rhesus substitutions well (0.9).

For the series, the system named is SIVsab (simian immunodeficiency virus of sabaeus monkeys), single-cycle GFP reporter, in CRFK cells. Description: enrichment among infected cells over input (fold); higher = weaker restriction. As to conditions: library: human / rhesus combinations. As for the experimental part: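 Pools of CRFK cells expressing variants of the TRIM5α v1 loop were challenged with the single-cycle reporter, sorted by GFP and sequenced; mean of two replicates.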
For the sequence “MASGILLNVKEEVTCPICLELLTEPLSLHCGHSFCQACITANHKKSMLYKEGERSCPVCRISYQPENIQPNRHVANIVEKLREVKLSPEEGQKVDHCARHGEKLLLFCQEDSKVICWLCERSQEHRGHHTFLMEEVAQEYHVKLQTALEMLRQKQQEAEKLEADIREEKASWKIQIDYDKTNVSADFEQLREILDWEESNELQNLEKEEEDILKSLTKSETEMVQQTQYMRELISELEHRLQGSMMDLLQGVDGIIKRIENMTLKKPKTFHKNQRRVFRAPDLKGMLDMFRELTDARRYWVDVTLAPNNISHAVIAEDKRQVSSRNPQIMYGARGTRFTFPSLVNFNYCTGVLGSQSITSGKHYWEVDVSKKSAWILGVCAGFQSDAMYNIEQNENYQPKYGYWVIGLQEGVKYSVFQDGSSHTPFAPFIVPLSVIICPDRVGVFVDYEACTVSFFNITNHGFLIYKFSQCSFSKPVFPYLNPRKCTVPMTLCSPSS [rhesus TRIM5α, 332-344 = GARGTRFTFPSLV]”, the enrichment was 1.19 ± 1.1.
Turning to “MASGILLNVKEEVTCPICLELLTEPLSLHCGHSFCQACITANHKKSMLYKEGERSCPVCRISYQPENIQPNRHVANIVEKLREVKLSPEEGQKVDHCARHGEKLLLFCQEDSKVICWLCERSQEHRGHHTFLMEEVAQEYHVKLQTALEMLRQKQQEAEKLEADIREEKASWKIQIDYDKTNVSADFEQLREILDWEESNELQNLEKEEEDILKSLTKSETEMVQQTQYMRELISELEHRLQGSMMDLLQGVDGIIKRIENMTLKKPKTFHKNQRRVFRAPDLKGMLDMFRELTDARRYWVDVTLAPNNISHAVIAEDKRQVSSRNPQIMYGARGTRFTFPTFTNFNYCTGVLGSQSITSGKHYWEVDVSKKSAWILGVCAGFQSDAMYNIEQNENYQPKYGYWVIGLQEGVKYSVFQDGSSHTPFAPFIVPLSVIICPDRVGVFVDYEACTVSFFNITNHGFLIYKFSQCSFSKPVFPYLNPRKCTVPMTLCSPSS [rhesus TRIM5α, 332-344 = GARGTRFTFPTFT]”, the enrichment is 1.5 ± 0.69.
With “MASGILLNVKEEVTCPICLELLTEPLSLHCGHSFCQACITANHKKSMLYKEGERSCPVCRISYQPENIQPNRHVANIVEKLREVKLSPEEGQKVDHCARHGEKLLLFCQEDSKVICWLCERSQEHRGHHTFLMEEVAQEYHVKLQTALEMLRQKQQEAEKLEADIREEKASWKIQIDYDKTNVSADFEQLREILDWEESNELQNLEKEEEDILKSLTKSETEMVQQTQYMRELISELEHRLQGSMMDLLQGVDGIIKRIENMTLKKPKTFHKNQRRVFRAPDLKGMLDMFRELTDARRYWVDVTLAPNNISHAVIAEDKRQVSSRNPQIMYGARGTRFTFPTFVNFNYCTGVLGSQSITSGKHYWEVDVSKKSAWILGVCAGFQSDAMYNIEQNENYQPKYGYWVIGLQEGVKYSVFQDGSSHTPFAPFIVPLSVIICPDRVGVFVDYEACTVSFFNITNHGFLIYKFSQCSFSKPVFPYLNPRKCTVPMTLCSPSS [rhesus TRIM5α, 332-344 = GARGTRFTFPTFV]” the figure was 1.8 ± 0.11; with “MASGILLNVKEEVTCPICLELLTEPLSLHCGHSFCQACITANHKKSMLYKEGERSCPVCRISYQPENIQPNRHVANIVEKLREVKLSPEEGQKVDHCARHGEKLLLFCQEDSKVICWLCERSQEHRGHHTFLMEEVAQEYHVKLQTALEMLRQKQQEAEKLEADIREEKASWKIQIDYDKTNVSADFEQLREILDWEESNELQNLEKEEEDILKSLTKSETEMVQQTQYMRELISELEHRLQGSMMDLLQGVDGIIKRIENMTLKKPKTFHKNQRRVFRAPDLKGMLDMFRELTDARRYWVDVTLAPNNISHAVIAEDKRQVSSRNPQIMYGARGTRFTFPTLTNFNYCTGVLGSQSITSGKHYWEVDVSKKSAWILGVCAGFQSDAMYNIEQNENYQPKYGYWVIGLQEGVKYSVFQDGSSHTPFAPFIVPLSVIICPDRVGVFVDYEACTVSFFNITNHGFLIYKFSQCSFSKPVFPYLNPRKCTVPMTLCSPSS [rhesus TRIM5α, 332-344 = GARGTRFTFPTLT]”, 1.58 ± 0.32.
